Results taken from the supplement of paper PMC7125110.
± gives the standard error. Variants at the background level are over-represented here.

B1: glmS ribozyme (parent)
chain: AUAAAAGCGCCAGAACUACAGAAAUGUAGUUGACGAGGAGGAGGUUUAUCGAAUUUUCGGCGGAUGCCUCCAAA

Columns and labels:
Settings in all cases: with glucosamine-6-phosphate
glucosamine-6-phosphate [1] = variants of: B1; assay: self-cleavage kobs at 40 uM GlcN6P; higher = faster cleavage; RNA array
Outline: (§1)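 Over ~14 h at 37 °C, tiles were imaged as glucosamine-6-phosphate (40 μM to 10 mM) in HEPES/KCl/Mg(OAc)2 buffer flowed across sequenced MiSeq chips. The chips carried barcoded ribozyme variants transcribed in situ by E. coli RNA polymerase and tracked with a hybridised Cy3 probe. After normalisation to baseline and to non-cleaving reference variants, one- or two-exponential decay fits of per-tile medians gave kobs. kcat and KM followed from weighted Michaelis–Menten fits across concentrations.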

glucosamine-6-phosphate [2] = variants of: B1; assay: self-cleavage kobs at 640 uM GlcN6P; higher = faster cleavage; RNA array
Outline: as §1

glucosamine-6-phosphate [3] = variants of: B1; assay: self-cleavage kobs at 160 uM GlcN6P; higher = faster cleavage; RNA array
Outline: as §1

glucosamine-6-phosphate [4] = variants of: B1; assay: self-cleavage kobs at 2500 uM GlcN6P; higher = faster cleavage; RNA array
Outline: as §1

glucosamine-6-phosphate [5] = variants of: B1; assay: self-cleavage kobs at 10000 uM GlcN6P; higher = faster cleavage; RNA array
Outline: as §1

Variant: AUAAAAGCGCCAGGAGUACAGAAAUGUAGUUGACGAGGAGGAGGUUUAUCGAAUUUUCGGCGGAUGCCUCCAAA [A14G C16G]
- self-cleavage kobs at 40 uM GlcN6P (glucosamine-6-phosphate [1]): 0.000569 ± 8.6e-05 s⁻¹
- self-cleavage kobs at 640 uM GlcN6P (glucosamine-6-phosphate [2]): 0.00514 ± 0.0008 s⁻¹
- self-cleavage kobs at 160 uM GlcN6P (glucosamine-6-phosphate [3]): 0.00113 ± 0.00027 s⁻¹
- self-cleavage kobs at 2500 uM GlcN6P (glucosamine-6-phosphate [4]): 0.00397 ± 0.0011 s⁻¹
- self-cleavage kobs at 10000 uM GlcN6P (glucosamine-6-phosphate [5]): 0.00854 ± 0.0016 s⁻¹

Variant: AUAAAAGCGCCAGUGCUACAGAAAUGUAGUUGACGAGGAGGAAGUUUAUCGAAUUUUCGGCGGAUGCCUCCAAA [A14U A15G G43A]
- self-cleavage kobs at 40 uM GlcN6P (glucosamine-6-phosphate [1]): < 1e-05 s⁻¹
- self-cleavage kobs at 160 uM GlcN6P (glucosamine-6-phosphate [3]): < 1e-05 s⁻¹

Variant: AUAAAAGCGCCAGAGCUACAGAAAUGUAGUUGACGAGGAGGAGGUUUAUUGAAUUUUCGACGGCUGCCUCCAAA [A15G C50U G60A A64C]
- self-cleavage kobs at 40 uM GlcN6P (glucosamine-6-phosphate [1]): < 1e-05 s⁻¹

Variant: AUAAAAGCGCCAGGACUACAGAAAUGUAGUUGACGAGGAGCAGGUUUAUCGAAUUUUCGGCGGAUGCCUCCAAA [A14G G41C]
- self-cleavage kobs at 40 uM GlcN6P (glucosamine-6-phosphate [1]): 4.74e-05 ± 9.7e-06 s⁻¹
- self-cleavage kobs at 640 uM GlcN6P (glucosamine-6-phosphate [2]): 0.00022 ± 5.1e-05 s⁻¹
- self-cleavage kobs at 160 uM GlcN6P (glucosamine-6-phosphate [3]): 4.38e-05 ± 1.7e-05 s⁻¹
- self-cleavage kobs at 2500 uM GlcN6P (glucosamine-6-phosphate [4]): 0.000737 ± 0.00013 s⁻¹

Variant: AUAAAAGCGCCAGAGCUACAGAAAUGUAGUUGACGAGGAGGAGGUUUAUCGAAUUUUCGACGGAUGCCUCCAAA [A15G G60A]
- self-cleavage kobs at 40 uM GlcN6P (glucosamine-6-phosphate [1]): < 1e-05 s⁻¹
- self-cleavage kobs at 160 uM GlcN6P (glucosamine-6-phosphate [3]): < 1e-05 s⁻¹

Variant: AUAAAAGCGCCAGUACUACAGAAAUGUAGUUGACUAGGAGGAGGUUUAUCGAAUUUUCGGCGGAUGCCGCCAAA [A14U G35U U69G]
- self-cleavage kobs at 40 uM GlcN6P (glucosamine-6-phosphate [1]): 0.000295 ± 0.00012 s⁻¹
- self-cleavage kobs at 10000 uM GlcN6P (glucosamine-6-phosphate [5]): 6.56e-05 ± 1.9e-05 s⁻¹

Variant: AUAAAAGCGCCAGGACUACAGAAAUGUAGUUGACGAGGAGGAGGUUUAUCGAAUUUUCGGCGGAUGCCUCGAAA [A14G C71G]
- self-cleavage kobs at 40 uM GlcN6P (glucosamine-6-phosphate [1]): 0.00028 ± 3.6e-05 s⁻¹

Variant: AUAAAAGCGCCAGACGUACAGAAAUGUAGUUGACGAGGAGAAGGUUUAUCGAAUUUUCGGCGGAUGCCUCCAAA [A15C C16G G41A]
- self-cleavage kobs at 40 uM GlcN6P (glucosamine-6-phosphate [1]): < 1e-05 s⁻¹

Variant: AUAAAAGCGCCAGAGCUACAGAAAUGUAGUUGACGAGGAGGAGGUUUAUCUAAUUUUCGGCGGAUGCCUCCAAA [A15G G51U]
- self-cleavage kobs at 40 uM GlcN6P (glucosamine-6-phosphate [1]): < 1e-05 s⁻¹
- self-cleavage kobs at 640 uM GlcN6P (glucosamine-6-phosphate [2]): < 1e-05 s⁻¹
- self-cleavage kobs at 160 uM GlcN6P (glucosamine-6-phosphate [3]): < 1e-05 s⁻¹
- self-cleavage kobs at 2500 uM GlcN6P (glucosamine-6-phosphate [4]): < 1e-05 s⁻¹

Variant: AUAAAAGCGCCAGGACUACAGAAAUGUAGUUGACAAGGAGCAGGUUUAUCCAAUUUUCGGCGGAUGCCUCUAAA [A14G G35A G41C G51C C71U]
- self-cleavage kobs at 40 uM GlcN6P (glucosamine-6-phosphate [1]): < 1e-05 s⁻¹
- self-cleavage kobs at 10000 uM GlcN6P (glucosamine-6-phosphate [5]): < 1e-05 s⁻¹

Variant: AUAAAAGCGCCAGGACUACAGAAAUGUAGUUGACGAGGGGAAGGUUUAUCGAAUGUUCGGCGGAUGCCCCCAUA [A14G A39G G41A U55G U69C A73U]
- self-cleavage kobs at 40 uM GlcN6P (glucosamine-6-phosphate [1]): < 1e-05 s⁻¹

Variant: AUAAAAGCGCCAGACCUACAGAAAUGUAGGUGACGAGGAGGAGGUUUAUCGAAUUUUCGGCGGAUGCCUCCAAA [A15C U30G]
- self-cleavage kobs at 40 uM GlcN6P (glucosamine-6-phosphate [1]): 0.00258 ± 0.00062 s⁻¹
- self-cleavage kobs at 640 uM GlcN6P (glucosamine-6-phosphate [2]): 0.0305 ± 0.0089 s⁻¹
- self-cleavage kobs at 160 uM GlcN6P (glucosamine-6-phosphate [3]): 0.00591 ± 0.0015 s⁻¹

Variant: AUAAAAGCGCCAGUACUACAGAAAUGUAGUUGACGAGGAGGAGGUUUAUCGAAUUUUCGGCCGAUGCCUCCAAA [A14U G62C]
- self-cleavage kobs at 40 uM GlcN6P (glucosamine-6-phosphate [1]): < 1e-05 s⁻¹
- self-cleavage kobs at 2500 uM GlcN6P (glucosamine-6-phosphate [4]): < 1e-05 s⁻¹

Variant: AUAAAAGCGCCAGACCUACAGAAAUGUAGUUGACGAGGAGGAGGUUUAUCGAAUUUUCGGGGGAUGCCUCCAAA [A15C C61G]
- self-cleavage kobs at 40 uM GlcN6P (glucosamine-6-phosphate [1]): < 1e-05 s⁻¹
- self-cleavage kobs at 640 uM GlcN6P (glucosamine-6-phosphate [2]): < 1e-05 s⁻¹
- self-cleavage kobs at 160 uM GlcN6P (glucosamine-6-phosphate [3]): < 1e-05 s⁻¹
- self-cleavage kobs at 2500 uM GlcN6P (glucosamine-6-phosphate [4]): < 1e-05 s⁻¹
- self-cleavage kobs at 10000 uM GlcN6P (glucosamine-6-phosphate [5]): < 1e-05 s⁻¹

Variant: AUAAAAGCGCCAGUACUACAGAAAUGUAGUUGACGAGGAGGAGGUUUAUCGAAUUUUCGGCGGCUGCCUCCAAA [A14U A64C]
- self-cleavage kobs at 40 uM GlcN6P (glucosamine-6-phosphate [1]): < 1e-05 s⁻¹

Variant: AUAAAAGCGCCAGCACUACAGAAAUGUAGUUGACGAGGAGGAGGUUUAGCGAAUCUUCGGCGGAUGCCUCCAAA [A14C U49G U55C]
- self-cleavage kobs at 40 uM GlcN6P (glucosamine-6-phosphate [1]): < 1e-05 s⁻¹
